Assay results: PubChem BioAssay AID2101 (National Center for Advancing Translational Sciences (NCATS), 2009)
Among all 330,000 compounds or so, about 300 (0.091%) were called active. Inconclusive results, whose numbers are uncertain, are shown with a selection of clear calls. The call rests on the fitted dose curve; in most records, active means well fitted inhibition curve with a large enough effect; inconclusive means small, poorly fitted or top-dose-only effect, or effect the other way, or another doubt; inactive means no such curve, though single readings can be large or run the other way. No potency is given beside an inconclusive call; the fits are too rough.
Potency means the concentration at half of the fitted maximal effect.
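Wherever activity change, negative = inhibition is given: 0% = full enzyme activity and -100% = no enzyme basal.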

Each compound was assayed against Lysosomal acid glucosylceramidase (Homo sapiens) (UniProt P04062) (assay: qHTS Assay for Inhibitors and Activators of N370S glucocerebrosidase as a Potential Chaperone Treatment of Gaucher Disease). Conditions: N370S GC spleen homogenate, 4MU-glucoside fluorescence; activity change, negative = inhibition: at 59.4 µM (top of the series) unless noted.
With `O=C1C(Nc2ccccc2)=CC(=O)c2ncccc21` the Potency was inconclusive [inhibitor, single point]. `COc1ccccc1C(c1nnnn1C(C)(C)C)N1CCN(C(=O)c2ccco2)CC1` (stereo not drawn) was tested, and the activity change, negative = inhibition was inactive: 8.35% [at 2.35 µM]. In the case of `Cc1nnc(NC(=O)c2cccc(S(=O)(=O)N3CC(c4ccccc4)CC3=O)c2)s1` (stereo not drawn), the Potency is reported as inconclusive [inhibitor, partial curve]. For `Cc1ccc(C)c(NC(=S)Nc2ncccc2C)c1`, the Potency was “inactive”. `O=C(c1ccncc1)N1CCN(C2CCC(c3ccccc3)CC2)CC1` (stereo not drawn) was tested, and the Potency was inconclusive [inhibitor, single point]. For `O=C(NC(NC(=S)Nc1ccccc1C(=O)O)C(Cl)(Cl)Cl)c1ccco1` (stereo not drawn), the Potency was “inactive”. With `NCCCNC(=O)c1cc2ccccc2[nH]1` the Potency was “inactive”. `O=C(CN1C(=O)c2ccccc2S1(=O)=O)Nc1ccc(S(=O)(=O)N2CCCCC2)cc1` was tested, and the Potency was inconclusive [inhibitor, single point]. In the case of `CCOc1ccccc1NC(=O)CSc1nnc(NC(=O)c2ccco2)s1`, the Potency is reported as inconclusive [inhibitor, single point]. In the case of `COc1ccc2cc(C(=O)c3ccccc3)c(=O)oc2c1`, the Potency is reported as “inactive”. For `O=C(/C=C/c1ccc(I)cc1)c1ccc(B(O)O)cc1`, the Potency was “inactive”. In the case of `N#Cc1c(-c2ccccc2Cl)c2c([nH]c1=O)-c1ccccc1OC2`, the Potency is reported as inconclusive [activator, single point]. With `Cc1ccc(NNC(=O)c2c(F)cccc2Cl)cc1C` the Potency was “inactive”. In the case of `O=C(c1cccc(S(=O)(=O)N2CCCCC2)c1)N1CCN(c2ccccc2)CC1`, the Potency is reported as “inactive”. `Cc1nn(C)cc1/C=C/C(=O)c1ccccc1` was tested, and the Potency was “inactive”. For `CCOc1ccc(C2=C(C=C(C#N)C#N)C(c3ccccc3)c3ccccc3O2)cc1` (stereo not drawn), the Potency was inconclusive [activator, partial curve]. `O=C(NC1CC1)C1CC(=O)N(c2cccc(Cl)c2Cl)C1` (stereo not drawn) was tested, and the Potency was inconclusive [activator, single point]. With `CSc1nc2ccc(NS(=O)(=O)c3ccc([N+](=O)[O-])cc3)cc2s1` the Potency was inconclusive [inhibitor, full curve]. For `COc1ccc(C(=O)CSc2nn3c(=O)c(C(C)(C)C)nnc3s2)cc1`, the Potency was inconclusive [activator, partial curve]. For `CN(C)S(=O)(=O)c1cccc(NC(=S)NC23CC4CC(CC(C4)C2)C3)c1`, the Potency was inconclusive [activator, single point]. With `OCc1cc([C@@H](O)CNCCCCCCOCCCCc2ccccc2)ccc1O` the Potency was inconclusive [inhibitor, single point]. For `CC1(C)Cc2c(c(N3CCOCC3)nc3sc(C#N)c(N)c23)CS1`, the Potency was “inactive”. `CCOC(=O)C1=C(N)N(c2cc(S(=O)(=O)N3CCOCC3)ccc2Cl)C(=O)C1` was tested, and the Potency was “inactive”. In the case of `Brc1ccc2c(c1)C(C1=NCCN1)c1ccccc1CS2` (stereo not drawn), the Potency is reported as inconclusive [inhibitor, partial curve]. In the case of `Oc1ccccc1C=Nc1ccccc1-c1nc2ccccc2[nH]1`, the Potency is reported as inconclusive [activator, partial curve]. For `Cn1c(=O)c(=O)n(C)c2cc(S(=O)(=O)N3CCN(c4ccccc4F)CC3)ccc21`, the activity change, negative = inhibition was inconclusive: 30.2% [activator]. With `Cc1cccc2c1CC(C)(C)NC2=C(C#N)C#N` the Potency was inconclusive [activator, partial curve]. For `CC1=CC(=C(C#N)c2nc3ccccc3s2)C=C(C)N1Cc1ccco1`, the Potency was inconclusive [activator, full curve, poor fit]. With `O=C(CSc1nnc(CN2CCCC2)n1-c1ccc(F)cc1)c1ccc2c(c1)OCO2` the Potency was “inactive”. In the case of `Cc1ccc(C)n1-c1nccc(-c2cccs2)n1`, the Potency is reported as inconclusive [activator, partial curve, poor fit]. For `O=C(Nc1nccs1)c1cc(N2CCOCC2)nc2ccccc12`, the Potency was inconclusive [inhibitor, single point]. In the case of `CCN1CCN(c2nc3c(C)cccn3c(=O)c2/C=C(\C#N)C(=O)NCCCOC)CC1`, the Potency is reported as inconclusive [activator, single point]. In the case of `c1ccc(-c2ccccc2OCCOCCN2CCNCC2)cc1`, the Potency is reported as inconclusive [inhibitor, single point]. With `CCCc1cc(=O)oc2cc(C)cc(OC(=O)c3ccco3)c12` the Potency was inconclusive [activator, single point]. With `[O-]/C(=C(\C(=S)Nc1ccc(SC(F)F)cc1)[n+]1ccccc1)c1ccc(Cl)cc1Cl` the Potency was inconclusive [inhibitor, partial curve]. `COc1ccc(CNC(=S)Nc2ccc3nc(N4CCOCC4)cc(C)c3c2)cc1` was tested, and the Potency was inconclusive [inhibitor, single point]. In the case of `CN1C(=O)CSc2ccc(NC(=O)Nc3ccccn3)cc21`, the Potency is reported as “inactive”. For `Cc1c(Cl)cccc1NC(=O)CNC(=O)CCCc1nc2ccccc2c(=O)[nH]1`, the Potency was inconclusive [inhibitor, partial curve]. With `CCCCCCCC[N+](CCCCCCCC)(CCCCCCCC)CCCCCCCC` the Potency was “inactive”. For `CN1c2ccccc2-c2nc3ccccc3n2C1c1ccco1` (stereo not drawn), the Potency was inconclusive [activator, partial curve]. In the case of `CCOc1ccccc1NC(=O)C(OC(=O)c1cc(C)oc1C)c1ccccc1` (stereo not drawn), the Potency is reported as inconclusive [activator, full curve]. `C1CC(CN2CCOCC2)CN(c2nc3nonc3nc2N2CCSCC2)C1` (stereo not drawn) was tested, and the Potency was inconclusive [inhibitor, single point]. `O=C(COC(=O)c1ccccc1NCCO)Nc1cccc(S(=O)(=O)NC2=NCCCCC2)c1` was tested, and the Potency was inconclusive [activator, partial curve]. In the case of `Brc1ccc2nc(-c3ccncc3)c(NC3CCCC3)n2c1`, the Potency is reported as “inactive”. In the case of `CCCC(O)(c1ccccc1)C(CN1CCOCC1)c1ccccc1` (stereo not drawn), the Potency is reported as inconclusive [inhibitor, partial curve]. With `O=S(=O)(c1ccc(F)cc1)c1nc(-c2ccccc2F)oc1N1CCCCC1` the Potency was inconclusive [activator, single point]. In the case of `Cc1cc(=O)oc2cc(NC(=O)c3ccccc3Cl)ccc12`, the Potency is reported as inconclusive [activator, partial curve]. In the case of `COc1cccc2sc(N(CCCN(C)C)C(=O)c3ccc(S(=O)(=O)N4CCCc5ccccc54)cc3)nc12`, the Potency is reported as inconclusive [inhibitor, partial curve]. `CCN1C(C)=C(C(=O)OC)C(c2ccccc2)N2C(=O)[C@](O)(C(=O)OC)CC(C#N)=C12` (stereo partly drawn) was tested, and the activity change, negative = inhibition was inactive: 2.95% [at 12.8 µM]. In the case of `Cc1c(O)ccc2c(CC(=O)N[C@@H](Cc3ccccc3)C(=O)O)cc(=O)oc12`, the Potency is reported as inconclusive [activator, partial curve]. In the case of `Cc1cc(OC2CCCCC2)nc(-c2ccccc2O)n1`, the Potency is reported as inconclusive [inhibitor, full curve, poor fit]. For `Cc1ccc(NC(=O)CSc2nn(-c3ccccc3)c(=S)s2)cc1S(=O)(=O)N(C)C`, the Potency was inconclusive [activator, partial curve]. With `COc1ccc(NC(=O)c2cc(CN3C(=O)c4ccccc4C3=O)ccc2OC)cn1` the Potency was inconclusive [activator, partial curve]. In the case of `N#Cc1cc2c(nc1SCC(=O)Nc1sc3c(c1C#N)CCC3)CCCC2`, the activity change, negative = inhibition is reported as inconclusive: 34.6% [activator]. In the case of `CCC(=O)c1cn(CC(=O)Nc2ccc(C)cc2)c2ccccc12`, the Potency is reported as inconclusive [inhibitor, partial curve, poor fit]. In the case of `CCCCc1cc(=O)oc2c(CN(C)C)c(O)c(Cl)cc12`, the Potency is reported as inconclusive [activator, partial curve]. With `CCCOc1ccc(-c2nnc(N)s2)cc1` the Potency was “inactive”. In the case of `Cc1ccc(-c2nnn(CC(=O)Nc3ccccc3-c3ccccc3)n2)c(-n2cnnn2)c1`, the Potency is reported as “inactive”. With `CCc1ccc(S(=O)(=O)NCc2cn3cccc(C)c3n2)s1` the activity change, negative = inhibition was inconclusive: 26.4% [activator]. In the case of `CC(=O)Nc1ccc(S(=O)(=O)Nc2ccccc2C(=O)NCc2cccnc2)cc1`, the Potency is reported as “inactive”. In the case of `CC(=O)Nc1ccc(C2CC(c3ccc(Cl)cc3)=NN2c2ccccc2)cc1` (stereo not drawn), the Potency is reported as inconclusive [activator, full curve]. In the case of `COc1ccc(-c2cc(C(=O)OCc3ccccn3)c3ccccc3n2)cc1`, the Potency is reported as inconclusive [activator, partial curve]. `CCCSc1nc2sc3c(c2c(=O)[nH]1)CCN(Cc1ccccc1)C3` was tested, and the Potency was inconclusive [activator, single point]. `Cc1cc2cc(CN(Cc3cccs3)S(=O)(=O)c3ccc4c(c3)OCCO4)c(=O)[nH]c2cc1C` was tested, and the Potency was inconclusive [activator, full curve]. With `CCn1c(SCC(=O)N2CCc3ccccc3C2)nc2sc(C)c(C)c2c1=O` the Potency was inconclusive [activator, single point]. With `Cc1ccc(C(=O)CCNc2ccccc2)o1` the Potency was inconclusive [inhibitor, full curve, poor fit]. For `CCCCn1c(=O)[nH]c(=O)c2c1nc(-c1ccc(-c3ccccc3Br)o1)n2CC`, the Potency was inconclusive [inhibitor, partial curve]. `Cc1cc(S(=O)(=O)Nc2ccc(C(=O)NCCCn3ccnc3)cc2)ccc1F` was tested, and the Potency was inconclusive [inhibitor, partial curve, poor fit].
